# Publication PMC4336329 (PLoS ONE, 2015)
# In all, about 310,000 compounds went through this assay and about 14,000 (4.5%) showed an effect of 50% or more. Effects have a minus sign here. The list shows a part of the results.
# Molecular target: human ether-à-go-go-related gene (hERG) potassium channel (human, UniProt Q12809)
# Assay: primary screen, population patch clamp on CHO cells stably expressing hERG
# 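Note: peak tail current of the secondary pulse compared with the same well before compound.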
# Chain of human ether-à-go-go-related gene (hERG) potassium channel (Q12809 whole entry, looked up): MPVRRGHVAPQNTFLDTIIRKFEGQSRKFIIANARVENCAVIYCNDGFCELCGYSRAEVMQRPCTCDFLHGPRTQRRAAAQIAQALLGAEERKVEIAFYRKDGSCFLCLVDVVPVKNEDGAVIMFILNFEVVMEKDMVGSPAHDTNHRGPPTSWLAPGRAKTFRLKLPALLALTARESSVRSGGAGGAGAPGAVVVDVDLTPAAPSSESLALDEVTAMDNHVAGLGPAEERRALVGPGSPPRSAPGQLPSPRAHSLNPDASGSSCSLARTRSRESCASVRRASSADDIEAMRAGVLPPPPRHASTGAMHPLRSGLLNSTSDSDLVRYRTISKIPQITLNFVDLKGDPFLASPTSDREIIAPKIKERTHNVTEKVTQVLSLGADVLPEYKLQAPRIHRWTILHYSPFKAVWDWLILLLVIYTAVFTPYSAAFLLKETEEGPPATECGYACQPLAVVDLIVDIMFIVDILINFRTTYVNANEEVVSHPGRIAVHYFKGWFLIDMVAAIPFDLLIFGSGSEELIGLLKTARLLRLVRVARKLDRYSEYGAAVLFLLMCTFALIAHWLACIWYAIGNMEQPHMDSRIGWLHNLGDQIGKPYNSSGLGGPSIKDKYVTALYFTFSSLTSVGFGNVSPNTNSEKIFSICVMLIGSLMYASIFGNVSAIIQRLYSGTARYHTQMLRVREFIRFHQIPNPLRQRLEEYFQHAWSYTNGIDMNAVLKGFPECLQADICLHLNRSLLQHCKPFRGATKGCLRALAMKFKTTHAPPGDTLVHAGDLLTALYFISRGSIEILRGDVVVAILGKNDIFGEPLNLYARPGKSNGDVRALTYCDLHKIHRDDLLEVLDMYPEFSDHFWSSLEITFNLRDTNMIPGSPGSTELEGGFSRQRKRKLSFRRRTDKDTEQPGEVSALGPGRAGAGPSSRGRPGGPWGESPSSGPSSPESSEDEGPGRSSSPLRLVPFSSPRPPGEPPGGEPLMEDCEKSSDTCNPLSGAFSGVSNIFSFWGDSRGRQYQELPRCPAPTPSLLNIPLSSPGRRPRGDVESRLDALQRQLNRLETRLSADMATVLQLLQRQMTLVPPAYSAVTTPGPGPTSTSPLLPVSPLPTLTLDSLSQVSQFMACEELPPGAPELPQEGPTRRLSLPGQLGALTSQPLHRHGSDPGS
row,Structure (SMILES),"hERG current change (%, negative = inhibition) at 10uM [%]"
1,CC(OC(=O)CCOc1ccccc1)C(=O)NC1CC1 (centres unmarked),10.2
2,CN(C)CCC1Sc2ccccc2Oc2ccccc21.O=C(O)C(=O)O (centres unmarked),-24.8
3,O=C(CCN1C(=O)c2ccccc2C1=O)Nc1nc2ccccc2s1,-11.6
4,CCN(CC)CCCNc1ncnc2scc(-c3ccc(F)cc3)c12,-36.3
5,O=C(Nc1ccncc1)C1CCC(CNS(=O)(=O)c2cccc3nsnc23)CC1 (centres unmarked),-15.4
6,Cc1ccc(O)c(NC(=O)c2onc(C)c2Cl)c1,29.7
7,O=C(/C=C/c1ccccc1Cl)N(c1ccccn1)C1CCCCC1,-14.4
8,COc1cc(C(=O)N2CCN(c3ccccc3O)CC2)ccc1OCC(=O)N1CCOCC1,3.06
9,Cc1ccc(-c2nc3ccccc3s2)cc1NC(=S)NC(=O)c1ccccc1,30.4
10,O=C1/C(=C/c2ccc(Cl)cc2)NC(=S)N1Cc1cccnc1,15.5
11,C=CCN(CC=C)C(=S)Nc1cc(Cl)ccc1OC,-0.181
12,O=C(CCc1ccccc1)NC(=S)Nc1cc(C(F)(F)F)ccc1N1CCOCC1,-5.19
13,O=C(O)c1ccc(NCc2cccnc2)c([N+](=O)[O-])c1,30
14,Cc1ccc(C2=NN(C(=S)Nc3ccccc3)C(c3ccco3)C2)cc1 (centres unmarked),21.9
15,CC(NC(=O)CCNC(=O)c1ccco1)c1ccccc1 (centres unmarked),-5.77
16,Cc1c(CN2CCCCC2C)c(=O)n(-c2ccccc2)n1C (centres unmarked),-8.98
17,Cc1ccc(C)c(S(=O)(=O)N2CCCOC2CNC(=O)C(=O)NC2CCCCC2)c1 (centres unmarked),1.93
18,Cc1nn(-c2ccccc2)c(C)c1/C=N/Nc1nc2ccccc2[nH]1,-12.3
19,C=C(C)COc1ccc(-c2[nH]ncc2-c2ccc(OC)cc2)c(O)c1,19.4
20,CCOc1ccc(CN(C)C(=O)NNC(=O)c2ccc(C)cc2)cc1OC,16.8
21,C=CCn1c(O)c(C(C)=Nc2cccc(C(=O)O)c2)c(=O)[nH]c1=O,1.4
22,Cc1ccc(S(=O)(=O)N(C)c2ccc(OCC(=O)NCC3(N(C)C)CCCCC3)cc2)cc1,-73.5
23,CCCCNC(=O)Nc1nnc(-c2ccc(OCC)cc2)o1,10.1

row,Structure (SMILES),"hERG current change (%, negative = inhibition) at 10uM [%]"
1,CSc1ccc(S(=O)(=O)Nc2ccccc2C(=O)N2CCOCC2)cc1,5.5
2,Cl.NCC12CC3CC(C1)CC(c1ccc(Cl)cc1)(C3)C2,-14.1
3,Cc1cccc(NC(=O)c2cc(NC(=O)CCCC(=O)O)ccc2Cl)n1,7.94
4,O=C(CC(C(=O)O)c1cccc(Br)c1)c1ccc(Cl)cc1 (centres unmarked),9.2
5,CCC(C)C1NC(=S)N(Cc2ccccc2)C1=O (centres unmarked),-7.02
6,CCCOC(=O)c1ccc(O)cc1,16.5
7,O=C(CCl)c1ccc(Cc2ncc(C(F)(F)F)cc2Cl)s1,-6.8
8,Cc1cccc(-c2nnc(NC(=O)c3cccs3)s2)c1,-21.7
9,Cc1cccc(C(=O)NC(=S)NNC(=O)COc2c(C)cccc2C)c1,13.8
10,Cc1cccc(OCC(=O)Oc2ccc(Cl)cc2)c1,0.758
11,Cl.O=C(NCCCc1ccccc1)[C@@H]1Cc2ccccc2CN1,-15.1
12,CCSc1ccccc1C(=O)Nc1ccc([N+](=O)[O-])cc1OC,-51.9
13,NC(=O)NC(=O)COC(=O)c1ccc2noc(-c3ccccc3)c2c1,13.2
14,Cc1cccc(CNC(=O)C2CCC(=O)N(C3CCCC3)C2)c1 (centres unmarked),32.9
15,Cc1cccc(Oc2nc3ccccn3c(=O)c2/C=C(\C#N)C(=O)NC2CCS(=O)(=O)C2)c1C (centres unmarked),16.4
16,COc1ccc(CNCCC(c2ccccc2)C2CCOC(C)(C)C2)cc1 (centres unmarked),-52.1
17,CCCCC(=O)OCc1nc(N)nc(Nc2ccccc2C)n1,14.1
18,CCOC(=O)c1cccnc1SCC(=O)Nc1ccc(C)cc1,-4.33
19,CCOC(=O)c1sc2ncn(CC(=O)N(CC)CC)c(=O)c2c1C,-3.59
20,CNc1nc(-c2ccccc2)nc(-c2ccccc2)c1C#N,16.5
21,CCOC(=O)Cn1cc(C(=O)C(=O)N2CCOCC2)c2ccccc21,-7.17
22,Cc1ccc(-n2nnc(-c3nccs3)n2)cc1,-17.1
23,O=C(NCCNC(=O)c1ccccc1F)c1ccco1.O=C(O)C(=O)O,13.9

row,Structure (SMILES),"hERG current change (%, negative = inhibition) at 10uM [%]"
1,O=C(CCC(=O)c1ccc(F)cc1)Nc1cccc(S(=O)(=O)Nc2cccc(Cl)c2)c1,1.4
2,Cc1ccc(NC(=O)Nc2nnc(Cc3ccc([N+](=O)[O-])cc3)s2)cc1,10.6
3,Cc1c(C#N)c(N)c(C(=O)c2ccccc2)n1Cc1ccccc1,-16.3
4,Cn1c(C(=O)N2CCCCCC2)cc2c(=O)n(C)c3ccccc3c21,-13.6
5,Cc1cccc2[nH]c(-c3ccc(NC(=O)c4ccco4)cc3)nc12,-5.91
6,CCCS(=O)(=O)N1CCCC(C(=O)NCCc2ccccc2)C1 (centres unmarked),-1.02
7,Cc1ccc(C)c(OCc2cc(C(=O)N(C)Cc3nccn3C)no2)c1,2.12
8,COc1cc(NC(=O)c2cccc(Cl)c2)c(OC)cc1NC(=O)CN1CCOCC1,-27.2
9,COc1cc([N+](=O)[O-])ccc1NC(=O)NN1CCN(C)CC1,-40.4
10,COc1ccccc1NC1=C(Cl)C(=O)N(c2ccccc2)C1=O,-11.6
11,O=C(OCCN(C1=NS(=O)(=O)c2ccccc21)c1ccccc1Cl)c1ccc(Cl)cc1,-8.94
12,C=C1CCN(c2ccc(C(=O)O)cc2[N+](=O)[O-])CC1,17
13,O=C(OCc1cccc([N+](=O)[O-])c1)c1cccnc1Cl,-16.2
14,O=C(NCCc1ccccc1)C(=O)NCC1OCCN1S(=O)(=O)c1ccc(F)cc1 (centres unmarked),-16
15,CCOC(=O)C1(Cc2ccccc2)CCCN(Cc2cnn(CC)c2)C1 (centres unmarked),-3.92
16,COCCCNC(=O)c1ccc(Cn2c(=O)c3ccccc3n(CC(=O)NCCc3ccc(OC)c(OC)c3)c2=O)cc1,5.93
17,O=C(Nc1ccc(F)cc1)c1cn(-c2ccccc2)nc1-c1ccncc1,-45.4
18,COC(=O)C1C(O)=C(C=Nc2ccc(N)cc2)C(=O)CC1(C)C (centres unmarked),4.26
19,CC1CCN(C(=O)Cn2cc(C#N)c3ccccc32)CC1,11.6
20,CCc1ccc(NC(=O)C2CC(=O)Nc3ncnn32)cc1 (centres unmarked),2.88
21,CSCCC(NC(=O)c1c(C)oc2c1CCCC2)C(=O)O (centres unmarked),8.97
22,COc1ccc(OC)c(NC(=S)NN2CCOCC2)c1,17.6
23,Cc1nc2ccccn2c1C(=O)N/N=C/c1cc(C)n(-c2ccc(Br)cc2)c1C,2.03

row,Structure (SMILES),"hERG current change (%, negative = inhibition) at 10uM [%]"
1,C=CCc1cccc(/C=N/NC(=O)CNc2cccc3ccccc23)c1O,-5.81
2,COC(=O)c1ccc(NC(=O)CCc2nnc3ccc(N4CCC5(CC4)OCCO5)nn23)cc1,10.1
3,OC(COc1ccc(CNCc2cccnc2)cc1)CN1CCc2ccccc2C1 (centres unmarked),-13.5
4,COc1ccc(NC(=O)C2Cc3ccccc3C(=O)O2)cc1 (centres unmarked),-5.14
5,c1cncc(-c2nc3c(ccc4ccccc43)[nH]2)c1,7.24
6,CN(C)CC1CCCCC1OC(=O)c1ccc(S(=O)(=O)N(C)c2ccccc2)cc1 (centres unmarked),17.8
7,O=C(Cc1ccccc1Cl)Nc1cc(S(=O)(=O)N2CCOCC2)ccc1N1CCOCC1,-10.6
8,Cc1c(Cl)cccc1N1C(=O)C2ON(c3ccccc3)C(c3cccnc3)C2C1=O (centres unmarked),4.12
9,CNC(=S)NNC(=O)c1sc2cc(C(F)(F)F)cnc2c1-c1cccnc1,20.7
10,CCOC(=O)N1CCN(C(=O)C(=O)NNC(=O)COc2ccc(Cl)cc2)CC1,17.2
11,CN(C)c1ccc(C(=O)NNC(=O)Nc2ccccc2)cc1,16.8
12,O=C(CCSc1ccccc1)OCn1nnc2ccccc2c1=O,4.21
13,Cc1nc2scc(C)n2c(=O)c1S(=O)(=O)NCCc1ccccc1,12
14,Cc1cc(C)nc(NS(=O)(=O)c2ccc(NC(=S)NC(=O)C(C)C)cc2)n1,-9.34
15,O=C(c1ccco1)N1CCN=C1SCc1cccc(Cl)c1,20.1
16,O=C(N1CCN(c2ccccc2)CC1)C12CC3CC(CC(C3)C1)C2,-47.6
17,CCOc1ccc(NC(=O)CN(C)CC(=O)Nc2ccc(F)c(F)c2F)cc1OCC,0.45
18,CC(=O)N1c2ccc(S(=O)(=O)NCCC(=O)NC3CCCCCC3)cc2CC1C (centres unmarked),-0.561
19,CCO[C@H]1OC(C(=O)NC2CC2)=C[C@@H](C2CC2)[C@@H]1CCCO,12.3
20,O=C(NC1CC1)C1C2C3C4CC5C3C5C4C12 (centres unmarked),2.43
